# Experimental data reported in the supplement of paper PMC8728848.
# Some of the results follow.
# Experiments:
# Test in all cases: glycan array binding signal (z-score within array); higher = stronger binding
# Details in all cases: glycan notation: IUPAC condensed, linker removed
# [1] = target: Neu5Ac(a2-3)Gal(b1-3)GlcNAc(b1-3)GalNAc
# Summary of the method: (§1)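 From the Consortium for Functional Glycomics database, 3228 arrays were curated, keeping only those whose protein sequence was available. Binding is given as a within-array Z-score averaged across arrays sharing a protein sequence and across linkers. Negative Z-scores can be read as non-binding.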
# [2] = target: Neu5Ac(a2-3)Gal(b1-3)GlcNAc(b1-4)Gal(b1-4)Glc
# Summary of the method: as §1
# [3] = target: Neu5Ac(a2-3)Gal(b1-3)GlcNAc(b1-6)GalNAc
# Summary of the method: as §1
# [4] = target: Neu5Ac(a2-3)Gal(b1-3)GlcNAc6S
# Summary of the method: as §1
# [5] = target: Neu5Ac(a2-3)Gal(b1-3)[Fuc(a1-4)]GlcNAc
# Summary of the method: as §1
# [6] = target: Neu5Ac(a2-3)Gal(b1-3)[Fuc(a1-4)]GlcNAc(b1-3)Gal(b1-3)[Fuc(a1-4)]GlcNAc
# Summary of the method: as §1
# [7] = target: Neu5Ac(a2-3)Gal(b1-3)[Fuc(a1-4)]GlcNAc(b1-3)Gal(b1-4)[Fuc(a1-3)]GlcNAc
# Summary of the method: as §1
# [8] = target: Neu5Ac(a2-3)Gal(b1-3)[GlcNAc(b1-6)]GalNAc
# Summary of the method: as §1
# [9] = target: Neu5Ac(a2-3)Gal(b1-3)[Neu5Ac(a2-3)Gal(b1-4)]GlcNAc
# Summary of the method: as §1
# [10] = target: Neu5Ac(a2-3)Gal(b1-3)[Neu5Ac(a2-6)]GalNAc
# Summary of the method: as §1
# [11] = target: Neu5Ac(a2-3)Gal(b1-3)[Neu5Ac(a2-6)]GlcNAc(b1-3)[Fuc(a1-3)[Gal(b1-4)]GlcNAc(b1-6)]Gal(b1-4)Glc
# Summary of the method: as §1
# [12] = target: Neu5Ac(a2-3)Gal(b1-3)]Neu5Ac(a2-3)Gal(b1-4)]GlcNAc
# Summary of the method: as §1
# Neu5Ac(a2-3)Gal(b1-4)Glc = target: Neu5Ac(a2-3)Gal(b1-4)Glc
# Summary of the method: as §1
# [13] = target: Neu5Ac(a2-3)Gal(b1-4)GlcNAc
# Summary of the method: as §1
# [14] = target: Neu5Ac(a2-3)Gal(b1-4)GlcNAc(b1-2)Man
# Summary of the method: as §1
# [15] = target: Neu5Ac(a2-3)Gal(b1-4)GlcNAc(b1-2)Man(a1-3)[GlcNAc(b1-4)][Neu5Ac(a2-3)Gal(b1-4)GlcNAc(b1-2)Man(a1-6)]Man(b1-4)GlcNAc(b1-4)GlcNAc
# Summary of the method: as §1
# [16] = target: Neu5Ac(a2-3)Gal(b1-4)GlcNAc(b1-2)Man(a1-3)[Neu5Ac(a2-3)Gal(b1-4)GlcNAc(b1-2)Man(a1-6)]Man(b1-4)GlcNAc(b1-4)GlcNAc
# Summary of the method: as §1
# [17] = target: Neu5Ac(a2-3)Gal(b1-4)GlcNAc(b1-2)Man(a1-3)[Neu5Ac(a2-3)Gal(b1-4)GlcNAc(b1-2)Man(a1-6)]Man(b1-4)GlcNAc(b1-4)[Fuc(a1-6)]GlcNAc
# Summary of the method: as §1
# [18] = target: Neu5Ac(a2-3)Gal(b1-4)GlcNAc(b1-2)Man(a1-3)[Neu5Ac(a2-6)Gal(b1-4)GlcNAc(b1-2)Man(a1-6)]Man(b1-4)GlcNAc(b1-4)GlcNAc
# Summary of the method: as §1
# [19] = target: Neu5Ac(a2-3)Gal(b1-4)GlcNAc(b1-2)[Neu5Ac(a2-3)Gal(b1-4)GlcNAc(b1-4)]Man(a1-3)[GlcNAc(b1-4)][Neu5Ac(a2-3)Gal(b1-4)GlcNAc(b1-2)[Neu5Ac(a2-3)Gal(b1-4)GlcNAc(b1-6)]Man(a1-6)]Man(b1-4)GlcNAc(b1-4)GlcNAc
# Summary of the method: as §1
# [20] = target: Neu5Ac(a2-3)Gal(b1-4)GlcNAc(b1-2)[Neu5Ac(a2-3)Gal(b1-4)GlcNAc(b1-4)]Man(a1-3)[GlcNAc(b1-4)][Neu5Ac(a2-3)Gal(b1-4)GlcNAc(b1-4)Man(a1-6)]Man(b1-4)GlcNAc(b1-4)GlcNAc
# Summary of the method: as §1
# [21] = target: Neu5Ac(a2-3)Gal(b1-4)GlcNAc(b1-2)[Neu5Ac(a2-3)Gal(b1-4)GlcNAc(b1-6)]Man(a1-6)[Neu5Ac(a2-3)Gal(b1-4)GlcNAc(b1-2)Man(a1-3)]Man(b1-4)GlcNAc(b1-4)GlcNAc
# Summary of the method: as §1
# [22] = target: Neu5Ac(a2-3)Gal(b1-4)GlcNAc(b1-2)[Neu5Ac(a2-3)Gal(b1-4)GlcNAc(b1-6)]Man(a1-6)[Neu5Ac(a2-3)Gal(b1-4)GlcNAc(b1-2)Man(a1-3)][GlcNAc(b1-4)]Man(b1-4)GlcNAc(b1-4)GlcNAc
# Summary of the method: as §1
# [23] = target: Neu5Ac(a2-3)Gal(b1-4)GlcNAc(b1-3)Gal
# Summary of the method: as §1
# [24] = target: Neu5Ac(a2-3)Gal(b1-4)GlcNAc(b1-3)Gal(b1-3)GlcNAc
# Summary of the method: as §1
# [25] = target: Neu5Ac(a2-3)Gal(b1-4)GlcNAc(b1-3)Gal(b1-4)GlcNAc
# Summary of the method: as §1
# [26] = target: Neu5Ac(a2-3)Gal(b1-4)GlcNAc(b1-3)Gal(b1-4)GlcNAc(b1-2)Man(a1-3)[Neu5Ac(a2-3)Gal(b1-4)GlcNAc(b1-3)Gal(b1-4)GlcNAc(b1-2)Man(a1-6)]Man(b1-4)GlcNAc(b1-4)GlcNAc
# Summary of the method: as §1
# [27] = target: Neu5Ac(a2-3)Gal(b1-4)GlcNAc(b1-3)Gal(b1-4)GlcNAc(b1-3)Gal(b1-4)GlcNAc
# Summary of the method: as §1
# [28] = target: Neu5Ac(a2-3)Gal(b1-4)GlcNAc(b1-3)Gal(b1-4)GlcNAc(b1-3)Gal(b1-4)GlcNAc(b1-2)Man(a1-3)[Neu5Ac(a2-3)Gal(b1-4)GlcNAc(b1-3)Gal(b1-4)GlcNAc(b1-3)Gal(b1-4)GlcNAc(b1-2)Man(a1-6)]GalNAc
# Summary of the method: as §1
# [29] = target: Neu5Ac(a2-3)Gal(b1-4)GlcNAc(b1-3)Gal(b1-4)GlcNAc(b1-3)GalNAc
# Summary of the method: as §1
# [30] = target: Neu5Ac(a2-3)Gal(b1-4)GlcNAc(b1-3)Gal(b1-4)GlcNAc(b1-3)[Neu5Ac(a2-3)Gal(b1-4)GlcNAc(b1-3)Gal(b1-4)GlcNAc(b1-6)]GalNAc
# Summary of the method: as §1
# [31] = target: Neu5Ac(a2-3)Gal(b1-4)GlcNAc(b1-3)Gal(b1-4)GlcNAc(b1-6)[Gal(b1-3)]GalNAc
# Summary of the method: as §1
binder,measurement,setting,value
"UEA-I (Ulex europaeus), P22972 (protein) SDDLSFKFKNFSQNGKDLSFQGDASVIETGVLQLNKVGNNLPDETGGIARYIAPIHIWNCNTGEVASFITSFSFFMETSANPKAATDGLTFFLAPPDSPLRRAGGYFGLFEDTKDNDSSYQTVAVEFDTIGSPVNFDDPGFPHIGIDVNRVKSINAERWNKRYGLNNVANVEIIYEASSKTLTASLTYPSDQTSISVTSIVDLKEILPEWVSVGFSGGTYIGRQATHEVLNWYFTSNLINTNS",glycan array binding signal (z-score),[1],-0.222
same,glycan array binding signal (z-score),[2],-0.206
same,glycan array binding signal (z-score),[3],-0.271
same,glycan array binding signal (z-score),[4],-0.14
same,glycan array binding signal (z-score),[5],-0.236
same,glycan array binding signal (z-score),[6],-0.176
same,glycan array binding signal (z-score),[7],-0.203
same,glycan array binding signal (z-score),[8],-0.216
same,glycan array binding signal (z-score),[9],-0.122
same,glycan array binding signal (z-score),[10],-0.198
same,glycan array binding signal (z-score),[11],-0.11
same,glycan array binding signal (z-score),[12],-0.181
same,glycan array binding signal (z-score),Neu5Ac(a2-3)Gal(b1-4)Glc,-0.108
same,glycan array binding signal (z-score),[13],-0.214
same,glycan array binding signal (z-score),[14],-0.144
same,glycan array binding signal (z-score),[15],-0.26
same,glycan array binding signal (z-score),[16],-0.203
same,glycan array binding signal (z-score),[17],-0.234
same,glycan array binding signal (z-score),[18],-0.209
same,glycan array binding signal (z-score),[19],-0.276
same,glycan array binding signal (z-score),[20],-0.292
same,glycan array binding signal (z-score),[21],-0.198
same,glycan array binding signal (z-score),[22],-0.26
same,glycan array binding signal (z-score),[23],-0.298
same,glycan array binding signal (z-score),[24],-0.118
same,glycan array binding signal (z-score),[25],-0.218
same,glycan array binding signal (z-score),[26],0.605
same,glycan array binding signal (z-score),[27],0.026
same,glycan array binding signal (z-score),[28],0.601
same,glycan array binding signal (z-score),[29],-0.156
same,glycan array binding signal (z-score),[30],-0.105
same,glycan array binding signal (z-score),[31],-0.1
